# Data from PMC10668032.
# Some of the results follow. At the low end of the ranking the order means little.
# Target: SIX1-Q177R homeodomain (UniProt Q15475)
# Test: universal protein binding microarray
# Conditions: Universal all-10-mer PBM (8x60K, AMADID 030236), 300 nM GST-tagged protein, Alexa Fluor 488 anti-GST; buffer, salt, pH and temperature not stated; high values mean tight binding; most listed sequences are background and not binding sites; double strand, one strand shown
row,Sequence,binding signal [E-score]
1,CCACTATC,-0.0324
2,GGAACAGA,-0.0364
3,ATTTCGCC,-0.141
4,CGACTCTC,0.0802
5,CGTGTGGA,0.159
6,AATGAAGT,-0.0477
7,CACAATGC,-0.02
8,ACAACGGG,-0.0854
9,GATTCGCC,-0.147
10,CTAAACAC,0.364
11,TATGAGGA,-0.106
12,AGAGTTAG,-0.0385
13,GACCTTGA,-0.283
14,AGGGGACG,0.0251
15,ATGGGTCA,-0.0198
16,CCTCATAG,-0.182
17,AAAGTCCA,-0.0664
18,GTCCAAGA,-0.0268
19,CGACATTA,-0.00988
20,GTGTCAAC,0.443
21,TACAGCCA,-0.239
22,ATTATAGC,-0.14
23,CATGTAAG,-0.212
24,AGTCCGCC,-0.163
25,ATTACCGG,-0.1

row,Sequence,binding signal [E-score]
1,ACCTGTTG,0.0724
2,CGGATACC,0.366
3,ATTTAATC,0.0382
4,CAGATAAG,-0.0582
5,CGGACTCC,0.0869
6,GGCTGACC,-0.026
7,ATACTGAG,0.114
8,GCGTACGC,0.235
9,ATCGCTTG,-0.245
10,ACTGTACC,0.0342
11,CGTATGAA,-0.128
12,CTGCTGCC,-0.194
13,CCTGCTAA,-0.0954
14,CGGCTTGA,-0.139
15,ATCGGGGG,0.141
16,GACCGAAA,-0.3
17,GGGACGAA,-0.0615
18,CTGTCCTA,-0.133
19,CCTTTGGC,0.0541
20,AGATCTGC,-0.0398
21,ATCAGATC,0.141
22,CCTTTGGA,-0.0559
23,ATTTTCGA,-0.0972
24,CATATTCG,-0.276
25,AGATTCAT,-0.0229

row,Sequence,binding signal [E-score]
1,CTTTGGAC,-0.0351
2,ATAGGCAG,-0.145
3,ACGGGTGC,0.237
4,GCTGACAA,-0.0435
5,CTAATCAG,-0.061
6,GAAGCGAA,-0.315
7,GACTGAAA,-0.167
8,TAGCGATA,-0.0721
9,CCGATGTC,-0.176
10,TTTAGAAA,-0.188
11,ACGCCGGG,0.16
12,GATGCCTA,-0.0508
13,GAGACACC,0.462
14,ACTACTAG,0.123
15,GAGATCTA,-0.268
16,AAGCTAGG,-0.179
17,CCGGTGTC,0.489
18,CTAATACA,0.148
19,AAATGCAA,-0.132
20,ATTCGCGA,0.128
21,CAGGATCA,0.113
22,AGCAACCA,-0.166
23,ACACGCTC,0.384
24,CCGACCCG,0.176
25,AATTTAGG,0.0287

row,Sequence,binding signal [E-score]
1,CCGAGCAA,-0.197
2,CACGTTCG,0.0313
3,CGGGTCGA,0.0721
4,AGCGTGCC,-0.0349
5,ACCTCTAG,-0.0182
6,AACGCCAG,0.0176
7,CAGGACAG,-0.305
8,CGTATCAG,0.0587
9,GGTCGATA,0.0901
10,AGTGCTCG,0.0628
11,ACACTATC,0.342
12,AAAGATCT,-0.263
13,ACGCTTCC,-0.0372
14,GGTTCCCA,-0.146
15,GCCAAGTA,-0.0633
16,CAGGGGTA,0.234
17,GACTGGGA,0.0378
18,ATAAAGAC,-0.107
19,GAACCCTC,0.0902
20,TGAAGTCA,-0.152
21,ACCCTTGG,0.135
22,CCATGACA,0.222
23,ATAATGTA,-0.00813
24,GATGCCGC,-0.0579
25,ACTCGCAC,0.0529

row,Sequence,binding signal [E-score]
1,CGTGAAGC,-0.243
2,GCTAGCTA,-0.15
3,AGTTACGA,-0.0452
4,CTCCACAA,0.0443
5,AGCAACGC,-0.0353
6,ATGAACGG,-0.0572
7,GGATGATA,0.11
8,ACTCAACG,0.00809
9,AGTCATGA,-0.0989
10,GGAATTTA,-0.235
11,GACACTGA,0.403
12,ATCTGAGC,-0.192
13,CCGACATC,0.109
14,GGCCAAAA,-0.228
15,ACAGTGCA,0.125
16,CCCGATCA,-0.0101
17,CATAGTAC,0.135
18,CGACGTGA,-0.00209
19,CATCCGTC,-0.121
20,ATCGTCTG,-0.213
21,ATACTCGG,0.127
22,CTCGGCGA,-0.0668
23,ATAAATCC,-0.0698
24,CGTCACGA,-0.15
25,ACTTTTAT,-0.247

row,Sequence,binding signal [E-score]
1,GGGGACCC,-0.000785
2,GCAGGCCC,-0.216
3,AGTTGGGA,-0.00893
4,GCGGTCTA,-0.0255
5,ATATAGCC,0.104
6,ATGCTCGA,-0.179
7,CCCCGACG,0.162
8,ATCATTGG,-0.0499
9,GACCTATC,-0.192
10,CTAGAAAC,-0.225
11,CAGGACTC,-0.121
12,AATCCTGA,-0.161
13,CATCACCA,-0.051
14,TGCAGCCA,-0.113
15,AAGTGAGT,0.0521
16,CCGTCCTC,-0.014
17,ATATGTAG,-0.172
18,CTTTTCGC,0.0525
19,CCCAAGCG,0.0425
20,TGAGCTAA,-0.0211
21,GTCCGCGA,-0.1
22,CGCAATCC,-0.0666
23,AGAACCTA,-0.0418
24,CCCCTTAC,0.245
25,ATTCGCTG,-0.306

row,Sequence,binding signal [E-score]
1,CAGAGAAC,-0.0777
2,GCATATAC,0.106
3,CGCCCAAC,0.0847
4,GCTCTGTA,-0.125
5,AGCTCATC,-0.153
6,CTACTTGA,-0.0567
7,GGGACTAA,-0.128
8,CATACTGC,-0.216
9,AACGGTTC,-0.242
10,ATTCCTGG,-0.138
11,GATTCATA,-0.179
12,CCATAGTC,-0.233
13,ATCAATAC,-0.0568
14,AGCCTTGA,-0.104
15,TACAGACA,-0.0477
16,ACCTGTGG,0.01
17,ATGGGCGC,-0.138
18,ACAGAATG,-0.165
19,GTCGGGGA,0.084
20,AGGTCAAG,-0.0848
21,GCCCGCCA,-0.0192
22,GAAGATGA,-0.253
